# Source: the antibiotic and cytotoxicity screens of Wong et al. (2023)
# Some of the results follow.
# Columns and labels:
# HSkMC = human skeletal muscle cells; experiment: cytotoxicity call (relative viability < 0.9); details: 10 µM
# S. aureus RN4220 = experiment: growth inhibition call (relative growth <= 0.2); details: 50 µM
SMILES,cytotoxicity call (HSkMC),growth inhibition call (S. aureus RN4220)
C[C@@H]1CCCCO[C@@H](CN(C)S(=O)(=O)c2cccs2)[C@@H](C)CN([C@@H](C)CO)C(=O)c2cc(NC(=O)C3CCCCC3)ccc2O1,inactive,inactive
C[C@@H]1CN([C@H](C)CO)C(=O)c2cccc(NC(=O)c3ccncc3)c2O[C@H]1CN(C)Cc1ccncc1,inactive,inactive
C[C@@H]1CCCCO[C@H](CN(C)Cc2ccc3c(c2)OCO3)[C@H](C)CN([C@H](C)CO)C(=O)c2cc(NS(=O)(=O)c3ccccc3)ccc2O1,inactive,inactive
CC(C)NC(=O)Nc1ccc2c(c1)C(=O)N([C@@H](C)CO)C[C@H](C)[C@H](CN(C)Cc1ccc(C(F)(F)F)cc1)OCCCC[C@H](C)O2,inactive,inactive
CCOC(=O)[C@H](Cc1c[nH]c2ccccc12)NC(=O)Cn1cc(C(=O)NO)nn1,inactive,inactive
Cc1noc(C)c1S(=O)(=O)Nc1ccc2c(c1)CC(=O)N([C@H](C)CO)C[C@@H](C)[C@H](CN(C)Cc1ccc(-c3ccccc3)cc1)O2,inactive,inactive
CNCc1cc(C)nn1C,inactive,inactive
C[C@@H]1CCCCO[C@@H](CN(C)C(=O)Nc2cccc3ccccc23)[C@@H](C)CN([C@@H](C)CO)C(=O)c2cc(NC(=O)NC3CCCCC3)ccc2O1,inactive,inactive
C[C@H](CO)N1C[C@H](C)[C@@H](CN(C)C(=O)Nc2ccc(-c3ccccc3)cc2)OCc2ccccc2-c2c(n(C)c3ccccc23)C1=O,inactive,inactive
C[C@H](CO)N1C[C@H](C)[C@H](CN(C)Cc2ccncc2)Oc2ccc(NS(=O)(=O)c3ccccc3)cc2C1=O,inactive,inactive
C[C@H]1CN([C@@H](C)CO)C(=O)c2cc(NS(=O)(=O)c3cccs3)ccc2O[C@H]1CN(C)S(=O)(=O)c1ccccc1,inactive,inactive
Cc1ccc2nccc(C(=O)N3CCC[C@@H](Cn4cc(C(C)(C)N)nn4)C3)c2c1,inactive,inactive
Cc1noc(C)c1NC(=O)Nc1cccc2c1O[C@@H](CN(C)Cc1ccc(C(=O)Nc3ccccc3N)cc1)[C@H](C)CN([C@@H](C)CO)C2=O,inactive,inactive
C[C@H](CO)N1C[C@H](C)[C@H](CN(C)C(=O)CN(C)C)Oc2cc(C#CCN(C)C)ccc2S1(=O)=O,inactive,inactive
O=C(/C=C/c1cccc(-c2cn(CC(=O)N3CCC4(CC3)C(=O)NCN4c3ccccc3)nn2)c1)NO,inactive,inactive
CC(C)(C)NC(=O)[C@@H]1CN(Cc2cccnc2)CCN1C[C@@H](O)C[C@@H](Cc1ccccc1)C(=O)N[C@H]1c2ccccc2C[C@H]1O,inactive,inactive
COc1ccc(S(=O)(=O)Nc2cccc3c2O[C@@H](CN(C)S(=O)(=O)c2ccc(F)cc2)[C@H](C)CN([C@@H](C)CO)C3=O)cc1,inactive,inactive
C[C@@H]1CCCCO[C@@H](CN(C)S(=O)(=O)c2ccc(F)cc2)[C@H](C)CN([C@@H](C)CO)C(=O)c2cc(NS(=O)(=O)c3ccc(Cl)cc3)ccc2O1,inactive,inactive
CN(C)CCOC(=O)COc1ccc(Cl)cc1.Cl,inactive,inactive
O=C(N[C@@H]1CC[C@H](CCNS(=O)(=O)c2ccc(F)cc2)O[C@@H]1CO)C1CC1,inactive,inactive
CC1CN(c2c(F)c(N)c3c(=O)c(C(=O)O)cn(C4CC4)c3c2F)CC(C)N1 (centres undefined),inactive,inactive
Cc1ccc(S(=O)(=O)N(C)C[C@@H]2Oc3ncc(Br)cc3C(=O)N([C@H](C)CO)C[C@@H]2C)cc1,inactive,inactive
C[C@H](CO)N1C[C@H](C)[C@H](CN(C)S(=O)(=O)c2cccs2)Oc2ccc(NS(=O)(=O)c3ccccc3)cc2CC1=O,inactive,inactive
C[C@H](CO)N1C[C@H](C)[C@H](CN(C)Cc2ccc(C(=O)Nc3ccccc3N)cc2)Oc2ccc(NC(=O)Nc3ccc4c(c3)OCO4)cc2CC1=O,inactive,inactive
COc1ccc(S(=O)(=O)N2C[C@H](O)COC[C@H]3O[C@H](CC(=O)NCc4ccc(Cl)c(Cl)c4)CC[C@@H]32)cc1,inactive,inactive
C[C@H](O)C#Cc1ccc2c(c1)O[C@H](CN(C)C(=O)CN(C)C)[C@@H](C)CN([C@H](C)CO)S2(=O)=O,inactive,inactive
COc1ccc(NC(=O)N(C)C[C@H]2Oc3c(NS(=O)(=O)c4c(C)noc4C)cccc3C(=O)N([C@@H](C)CO)C[C@H]2C)cc1,inactive,inactive
